Target: EGFR T790M/L858R kinase (Homo sapiens, UniProt P00533, L858R/T790M)

SMILES: C=CC(=O)Nc1cc(Nc2ncc(F)c(-c3cnn(C)c3)n2)c(OC)cc1N1CCC(N(C)C)CC1 [the free base of compound of formula X, N-(2-(4-(dimethylamino)piperidin-1-yl)-5-(5-fluoro-4-(1-methyl-1H-pyrazol-4-yl)pyrimidin-2-ylamino)-4-methoxyphenyl)acrylamide]
- inhibitory activities against EGFR mutant enzyme (T790M/L858R), in words: strong inhibitory activities
